Results taken from PubChem BioAssay AID1645887 (National Center for Advancing Translational Sciences (NCATS), 2021).
“And” between values parts separate entries of the source, which are not always exact repeats. Identical values can stand only once. In all, about 16,000 compounds went through this assay and about 40 (0.2%) were called active. About 1% were inconclusive and are not listed. Calls come from the whole dose curve; as a rule, active = well fitted activation curve with a large enough effect; inconclusive = small, poorly fitted or top-dose-only effect, or another doubt; inactive = no such curve, though single readings can be large or run the other way. This is one part of the list.

Each compound was assayed against Rap guanine nucleotide exchange factor 4 (Homo sapiens) (UniProt Q8WZA2) (assay: Validation qHTS for agonist of cAMP-regulated guanine nucleotide exchange factor 4 (EPAC2)). Conditions: EPAC2 Rap1B BODIPY-GDP exchange, fluorescence; activation: hits give high values.
From the text: Principle Investigator: Xiaodong Cheng Ph.D.
The University of Texas Medical Branch, […], TX
In multi-cellular eukaryotic organisms, the effects of cAMP are transduced by two ubiquitously-expressed intracellular cAMP receptors, the classic protein kinase A/cAMP-dependent protein kinase (PKA/cAPK) and the more recently discovered exchange protein directly activated by cAMP/cAMP-regulated guanine nucleotide exchange factor (EPAC/cAMP-GEF). Both PKA and EPAC are ubiquitously expressed in all tissues, and an increase in intracellular cAMP levels will lead to the activation of both PKA and EPAC. Therefore, careful dissections of the individual role and relative contribution of EPAC and PKA within the overall cAMP signaling in various model systems are critical for further elucidating the mechanism of cAMP signaling. To date no EPAC-specific antagonists and agonist, as well as isoform-specific agonists have been reported, and developing EPAC-specific pharmacological probes to determine the physiological functions that EPAC play in the overall cAMP-mediated signaling remains a major challenge within the research field. Furthermore, identified regulators of EPAC may lead to new mechanism-based therapeutic strategies specifically targeting the EPAC / cAMP-signaling components as EPAC has been implicated to play important roles in major human pathological conditions such as diabetes, heart disease, and cancer.
This qHTS will be used to screen the Molecular Libraries Small Molecule Repository (MLSMR) as a concentration-titration series using the NCGC unique quantitative screening (qHTS) platform to find activators for EPAC1. In addition, this assay will also be used as a counterscreen for the EPAC2 qHTS. This fluorescent based assay is developed and validated for EPAC1 that measures exchange using EPAC effector Rap1 complex with BODIPY-GDP, a GDP analog with a tethered fluorophores. Activators are identified by monitoring the change in fluorescence signal as the exchanged free BODIPY-GDP has a reduced fluorescence compared to Rap1-bound BODIPY-GDP. Increase in signal (activation) is the desired outcome for the EPAC1 agonist while no activity in this assay is desired for the EPAC2 agonist counterscreen.
[1] de Rooij, J., Zwartkruis, F. J., Verheijen, M. H., Cool, R. H., Nijman, S. M., Wittinghofer, A., and Bos, J.L. (1998) Nature 396, 474-477.
Briefly, three uL of reagents (100 nM EPAC2, 250 nM RAP1B-BODIPY-GDP, 50 uM GDP) were dispensed into a 1536-well Greiner black solid-bottom medium binding assay plate. Controls and test compounds (23 nL) were transferred to the plate via a Kalypsys pin tool equipped with a 1536-pin array. The plates were centrifuged at 1,000 rpm for 15 seconds followed by 5 minute incubation at room temperature. The assay plates were read at 5 minute intervals for 30 minutes in the ViewLux plate reader using 480nm excitation and 540nm emission filters. The results were normalized to the agonist positive control of 6.5 mM cAMP.
% is set by controls: 0 for no effect and ±100 for the full control effect; potency is the fitted concentration of half-maximal effect.
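Throughout, for activation: exchange makes BODIPY-GDP fluorescence drop when released from Rap1B; series mostly up to about 150 µM.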

Chain of UniProt Q8WZA2 (Q8WZA2 whole entry, looked up): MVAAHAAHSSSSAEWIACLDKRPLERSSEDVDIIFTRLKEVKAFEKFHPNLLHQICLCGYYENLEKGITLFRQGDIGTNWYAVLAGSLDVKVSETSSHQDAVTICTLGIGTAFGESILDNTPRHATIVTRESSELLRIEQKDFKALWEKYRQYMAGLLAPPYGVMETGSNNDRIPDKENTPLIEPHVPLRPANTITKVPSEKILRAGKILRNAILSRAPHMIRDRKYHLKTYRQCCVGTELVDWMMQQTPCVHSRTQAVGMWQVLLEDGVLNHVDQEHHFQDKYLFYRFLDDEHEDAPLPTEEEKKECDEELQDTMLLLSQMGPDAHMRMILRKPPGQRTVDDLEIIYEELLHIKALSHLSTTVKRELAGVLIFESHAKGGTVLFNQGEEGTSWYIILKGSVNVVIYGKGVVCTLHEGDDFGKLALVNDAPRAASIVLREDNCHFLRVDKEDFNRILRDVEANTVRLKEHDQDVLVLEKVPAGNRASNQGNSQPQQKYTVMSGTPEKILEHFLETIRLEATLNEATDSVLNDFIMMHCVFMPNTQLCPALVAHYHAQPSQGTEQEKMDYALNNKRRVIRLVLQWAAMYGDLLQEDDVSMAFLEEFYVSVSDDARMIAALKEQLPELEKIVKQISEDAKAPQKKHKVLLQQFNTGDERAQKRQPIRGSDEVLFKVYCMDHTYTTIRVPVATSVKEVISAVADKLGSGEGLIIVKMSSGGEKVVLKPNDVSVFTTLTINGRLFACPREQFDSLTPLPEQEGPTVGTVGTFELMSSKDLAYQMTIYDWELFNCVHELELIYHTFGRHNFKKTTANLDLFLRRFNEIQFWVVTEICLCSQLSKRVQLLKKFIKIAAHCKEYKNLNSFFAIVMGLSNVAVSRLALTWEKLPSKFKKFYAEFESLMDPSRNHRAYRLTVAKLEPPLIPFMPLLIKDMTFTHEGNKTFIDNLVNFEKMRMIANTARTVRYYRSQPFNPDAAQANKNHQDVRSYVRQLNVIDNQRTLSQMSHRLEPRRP

| SMILES | activation | Potency |
| --- | --- | --- |
| COCC1CCCN(Cc2ccc3c(c2)CN(C(=O)c2cccnc2OC)CCO3)C1 (stereo not drawn) | inactive: -5.39% | – |
| COc1ccc2c(c1)CCc1cnc(-n3ncc(C(=O)NCCCc4ccncc4)c3C)nc1-2 | inactive: 6.88% | – |
| COc1ccc(CNc2ccnc(-c3ccc4c(c3)OCO4)n2)c(OC)c1 | inactive: -3.14% | – |
| O=S(=O)(O)CCCS(=O)(=O)O | inactive: 2.53% | – |
| CC(C)CN1CCC2(CC1)CCN(C(=O)c1cccc(F)c1)CC2 | inactive: -7.34% | – |
| C=CCSCC(N)C(=O)O (stereo not drawn) | inactive: -15.2% | – |
| COc1cc(NCCCC(C)N)c2ncccc2c1 (stereo not drawn) | inactive: 4.09% | – |
| C[C@@H]1c2ccccc2CN1CC1=NCCN1 | inactive: -10% | – |
| COc1cc(C)c(CC/C(C)=C/C=C/C(C)=O)c(C)c1C | inactive: -30.1% | – |
| Cc1ccccc1N=C1Nc2ccc(Cl)cc2N[C@]12C[C@H]1CCCC(=O)N3CC[C@@H](C2)[C@@H]13 | inactive: -18.8% | – |
| COc1ccc(CNC(=O)c2cnn(-c3ncc4c(n3)-c3ccccc3CC4)c2C)cc1OC | inactive: -6.01% | – |
| Cc1ncc2c(c1CNC(=O)c1ccsc1)CCN(C(=O)c1c(F)cccc1Cl)C2 | inactive: -2.63% | – |
| COC(=O)C(C)c1ccc(C(=O)c2cccs2)cc1 (stereo not drawn) | inactive: 11% | – |
| Cn1cccc1C(=O)N1CCC2(CCCN(C(c3ccccc3)c3ccccc3)C2)CC1 | inactive: -5.91% | – |
| CCNc1ncc2nc(-c3ccc(Cl)cc3)c(=O)n(C[C@H]3CCCO3)c2n1 | inactive: -0.505% | – |
| CCCCCCCCCc1ccc(OCCOCCO)cc1 | inactive: -50.6% | – |
| O=C(C[n+]1cccc2cccc(O)c21)c1ccc(F)cc1 | inactive: -28.9% | – |
| COC(=O)[C@@H]1CCCN1C(=O)c1cc(NC(=O)c2ccccc2)cc2ncn(C3CCCC3)c12 | inactive: -1.66% | – |
| Cc1nc2cnc(Oc3cccc(Cl)c3)nc2n(C[C@H]2CCCO2)c1=O | inactive: -8.34% | – |
| CC(C)NC(=O)N1CC[C@@]2(CCCN(C(=O)Oc3ccccc3)C2)C1 | inactive: 13.4% | – |
| CO[C@]1(NC(=O)CSC(F)F)C(=O)N2C(C(=O)O)=C(CSc3nnnn3CCO)CO[C@H]21 | inactive: 17.6% | – |
| COCCn1c(=O)c(-c2cc(F)cc(F)c2)nc2cnc(N(C)C)nc21 | inactive: -8.66% | – |

| SMILES | activation | Potency |
| --- | --- | --- |
| O=c1c(O)c(-c2ccccc2)oc2ccc3occc3c12 | inactive: -9.12% | – |
| CS(=O)(=O)N1CCC2(CCN(C(=O)Nc3cccc(F)c3)CC2)CC1 | inactive: -34.8% | – |
| N#Cc1cccc(NC(=O)N2CC[C@@]3(CCCN(C(=O)c4ccco4)C3)C2)c1 | inactive: -12.5% | – |
| Cc1csc(-c2coc3cc(O[C@@H]4O[C@H](CO)[C@@H](O)[C@@H](O)[C@H]4O)ccc3c2=O)n1 | inactive: -20.1% | – |
| COc1ccc(C[C@H](C)NC[C@@H](O)c2ccc(O)c(NC=O)c2)cc1 | inactive: -20.4% | – |
| COc1ccc(CCNc2ncnc3sc(C(=O)N(C)C)c(C)c23)cc1OC | inactive: -1.58% | – |
| O=C(OCc1ccccc1)c1ccccc1 | inactive: -4.07% and inactive: -26.1% | – |
| N#C/C(=C\c1ccc(O)c(O)c1)C(=O)NCCCNC(=O)/C(C#N)=C/c1ccc(O)c(O)c1 | inactive: -26.1% | – |
| OC(CCN1CCCCC1)(c1ccccc1)C1CCCCC1 (stereo not drawn) | inactive: 4.53% and inactive: 11.2% | – |
| CN(C)C(=O)c1ccc(-c2nccc(-n3ccnc3)n2)cc1 | inactive: -16.1% | – |
| CCNc1ncc2nc(-c3cc(F)cc(F)c3)c(=O)n(Cc3cccs3)c2n1 | inactive: -21.6% | – |
| COCc1c(C(=O)N2CCN(C)CC2)cnn1-c1ncc2c(n1)-c1ccccc1CCC2 | inactive: -18.3% | – |
| Cc1ncc2c(c1CNC(=O)c1cncs1)CCN(C(=O)c1cc(F)c(F)cc1F)C2 | inactive: 3.7% | – |
| COc1ccc(-n2c(=O)c(CCc3ccccc3)nc3cncnc32)cc1 | inactive: -0.419% | – |
| CC(=O)Nc1cc(C(=O)N2CC3(C)CC2CC(C)(C)C3)cc2ncn(CCc3ccccn3)c12 (stereo not drawn) | inactive: -8.27% | – |
| N#Cc1ccc(CN2CCC3(CC2)CCN(C(=O)c2ccco2)CC3)cc1 | inactive: -3.74% | – |
| Cc1ccc2c(Cl)cc(Cl)c(O)c2n1 | inactive: -15% and inactive: 2.22% | – |
| COc1ccccc1CNc1cc(-c2ccoc2)ncn1 | inactive: -2.56% | – |
| COc1ccc2[nH]cc(CCNc3nc(-c4ccc(N(C)C)cc4)nc4ccccc34)c2c1 | inactive: 7.36% | – |
| CC(C)C[C@@H](CO)N1CCN(Cc2ccc(Br)cc2)CCC1=O | inactive: -24.8% | – |
| N[C@H](C(=O)O)[C@H](OCc1ccccc1)C(=O)O | inactive: -19.4% | – |
| COc1ccc2c(c1)CCc1cnc(-n3ncc(C(=O)NCC(C)(C)CN(C)C)c3C)nc1-2 | inactive: 1.5% | – |

| SMILES | activation | Potency |
| --- | --- | --- |
| CN(C)CC/C=C1/c2ccccc2CSc2ccccc21 | inactive: 6.43% | – |
| COc1ccc(SCCN2CC[C@@H](NC(=O)OCc3ccccc3)CCC2=O)cc1 | inactive: -14.1% | – |
| O=C(c1nc2ncccn2n1)N1CCOc2ccc(C(O)C(c3ccccc3)c3ccccc3)cc2C1 (stereo not drawn) | inactive: 2.27% | – |
| C[C@H](N=C(NC#N)Nc1ccncc1)C(C)(C)C | inactive: -16.7% | – |
| CN1C[C@H](C(=O)N[C@@]2(C)O[C@@]3(O)C4CCCN4C(=O)C(Cc4ccccc4)N3C2=O)C[C@H]2c3cccc4[nH]cc(c34)C[C@H]21 (stereo partly drawn) | inactive: -3.24% | – |
| O=S1(=O)CCOCCCN1Cc1ccccc1F | inactive: -9.79% | – |
| O=C1CC(c2ccc(O)cc2)Oc2ccccc21 (stereo not drawn) | inactive: -9.69% | – |
| O=C(C[n+]1cccc2cccc(O)c21)c1ccc(Cl)cc1 | inactive: -41.7% | – |
| Cc1cc(O)c(C=O)c2c1C(=O)Oc1c(COC(=O)/C=C/C(=O)O)c(O)c(C(=O)O)c(C)c1O2 | inactive: -23.7% | – |
| COc1cc(CNCc2cc3ccc(F)cc3nc2N2CCOCC2)cc(OC)c1OC | inactive: -8.48% | – |
| O=C(NC1CCC(n2cc(C(=O)NC3CC3)nn2)CC1)C(=O)c1ccccc1 (stereo not drawn) | inactive: -2.92% | – |
| C#Cc1cccc(Nc2ncnc3cc(OC)c(OC)cc23)c1 | inactive: -13.1% | – |
| O=S(=O)(c1ccccc1)N1CCC[C@@]2(CCN(Cc3nccs3)C2)C1 | inactive: -18.5% | – |
| CN(C)c1ccc(-c2ccc3ncnc(N(C)C)c3c2)cc1 | inactive: -6.19% | – |
| CN(C)CCOC(=O)COc1ccc(Cl)cc1 | inactive: -6.08% and inactive: -11.5% and inactive: -6.76% | – |
| CCOC(=O)c1cccnc1 | inactive: -6.59% | – |
| Brc1c(NC2=NCCN2)ccc2nccnc12 | inactive: -17.3% and inactive: -17% and inactive: -14.5% | – |
| Nc1cc(-c2ccncc2)c[nH]c1=O | – | active: 100 µM |
| CCOC(=O)c1c(C)n(C)c2ccc(O)cc12 | inactive: 0.314% | – |
| C[C@H]1C[C@@H]2[C@H]([C@@H](O)C[C@@]3(C)[C@H]2CC[C@]3(O)C(=O)COC(=O)CCC(=O)O)[C@@]2(C)C=CC(=O)C=C12 | inactive: 9% | – |
| OCCOCCOCCO | inactive: -10.7% | – |
| Cc1onc(-c2ccccc2)c1C(=O)NCCN1Cc2ccccc2OC(c2ccsc2)C1 (stereo not drawn) | inactive: -25% | – |

| SMILES | activation | Potency |
| --- | --- | --- |
| COC(=O)C(N)CS (stereo not drawn) | inactive: -9.24% | – |
| CC(=O)OC1CCC2(O)CC1(C)CCC1C2CC1(C)C (stereo not drawn) | inactive: -18.1% | – |
| COc1ccc(-c2oc3ccccc3c(=O)c2O)cc1 | inactive: -6.99% | – |
| Cc1c(C(=O)NCCO)[n+](=O)c2ccccc2n1[O-] | inactive: 6.43% | – |
| CC(N)C12CC3CC(CC(C3)C1)C2 (stereo not drawn) | inactive: -6.29% | – |
| CCCCc1ccc2nc(NC(=O)OC)[nH]c2c1 | inactive: -6.22% | – |
| COc1ccc(CNC(=O)[C@@H]2CC=C[C@@H]3CCN(C4CC4)C(=O)[C@@H]32)cc1 | inactive: -19% | – |
| COc1cc2oc(=O)c3c4c(cc5ccc(c1CCN(C)C)c2c53)OCO4 | inactive: -20.1% | – |
| CS(=O)(=O)Nc1ccc([N+](=O)[O-])cc1OC1CCCCC1 | inactive: -19.7% and inactive: 11.7% | – |
| NC(N)=NCC1COc2ccccc2O1 (stereo not drawn) | inactive: -33.2% | – |
| COc1ccc2[nH]cc(CCNc3cc(-c4ccc(C(=O)N(C)C)cc4)ncn3)c2c1 | inactive: 2.92% | – |
| Nc1c(Br)cc(Br)cc1CNC1CCC(O)CC1 (stereo not drawn) | inactive: -2.68% and inactive: 11.8% | – |
| CN(C)CC[C@@H](c1ccc(Cl)cc1)c1ccccn1 | inactive: 5.07% and inactive: -11.6% and inactive: -13.5% | – |
| COC(=O)C1CCN(Cc2ccc3c(c2)CN(C(=O)c2ccnn2C)CCO3)CC1 | inactive: -8.06% | – |
| COc1ccc(C(C)=O)cc1 | inactive: -20.7% | – |
| Cc1ncc2c(c1CNC(=O)c1ccc3c(c1)OCO3)CCN(C(=O)c1ccc3ccccc3c1)C2 | inactive: -2.62% | – |
| O=C1N[C@@H](Cc2c[nH]c3ccccc23)C(=O)N[C@H]1Cc1c[nH]c2ccccc12 | inactive: -20.6% | – |
| C[C@@H]1O[C@@H](OC[C@H]2O[C@@H](Oc3c(-c4cccc(O)c4O)oc4cc(O)cc(O)c4c3=O)[C@H](O)[C@@H](O)[C@@H]2O)[C@H](O)[C@H](O)[C@H]1O | inactive: -5.75% | – |
| O=C(O)c1cc(=O)c2ccc(Cl)cc2[nH]1 | inactive: -7.72% and inactive: -2.8% | – |
| O=C(Nc1ccccc1)[C@@H]1CC=C[C@@H]2CCN(C3CCCCC3)C(=O)[C@@H]21 | inactive: -10.4% | – |
| O=C(CC(=O)c1ccccc1)c1ccccc1 | inactive: 7.7% | – |
| COc1ccc(-n2c(=O)c(C)nc3cncnc32)cc1 | inactive: -19.1% | – |
